From the supplement of paper PMC8728848
The list shows a part of the results.

How the values were obtained:
Experiment in all cases: glycan array binding signal (z-score within array); higher = stronger binding
Conditions in all cases: glycan notation: IUPAC condensed, linker removed; mutation: D22R
[1] = molecular target: GlcNAc(b1-4)GlcNAc(b1-4)GlcNAc(b1-4)GlcNAc(b1-4)GlcNAc
In short: (§1)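 Arrays were curated from the Consortium for Functional Glycomics database, 3228 in total, and kept only where the protein sequence was available. Binding is expressed as a within-array Z-score. This score was averaged across arrays of the same protein sequence at different concentrations or buffers and across linkers, and negative values can be read as non-binding.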

[2] = molecular target: GlcNAc(b1-4)GlcNAc(b1-4)GlcNAc(b1-4)GlcNAc(b1-4)GlcNAc(b1-4)GlcNAc
In short: as §1

[3] = molecular target: GlcNAc(b1-4)[GlcNAc(b1-6)]GalNAc
In short: as §1

[4] = molecular target: GlcNAc(b1-6)Gal(b1-4)GlcNAc
In short: as §1

[5] = molecular target: GlcNAc(b1-6)GalNAc
In short: as §1

[6] = molecular target: GlcNAc6S(b1-3)Gal(b1-4)GlcNAc
In short: as §1

[7] = molecular target: Kdn(a2-3)Gal(b1-3)GalNAc
In short: as §1

[8] = molecular target: Kdn(a2-3)Gal(b1-3)GlcNAc
In short: as §1

[9] = molecular target: Kdn(a2-3)Gal(b1-4)Glc
In short: as §1

[10] = molecular target: Kdn(a2-3)Gal(b1-4)GlcNAc
In short: as §1

[11] = molecular target: Kdn(a2-3)Gal(b1-4)[Fuc(a1-3)]GlcNAc
In short: as §1

[12] = molecular target: Kdn(a2-6)Gal(b1-4)GlcNAc
In short: as §1

[13] = molecular target: Man(a1-2)Man(a1-2)Man(a1-3)Man
In short: as §1

[14] = molecular target: Man(a1-2)Man(a1-2)Man(a1-6)[Man(a1-3)]Man
In short: as §1

[15] = molecular target: Man(a1-2)Man(a1-3)Man
In short: as §1

[16] = molecular target: Man(a1-2)Man(a1-3)[Man(a1-2)Man(a1-6)]Man
In short: as §1

[17] = molecular target: Man(a1-2)Man(a1-3)[Man(a1-2)Man(a1-6)]Man(a1-6)[Man(a1-2)Man(a1-2)Man(a1-3)]Man
In short: as §1

[18] = molecular target: Man(a1-2)Man(a1-3)[Man(a1-2)Man(a1-6)]Man(a1-6)[Man(a1-2)Man(a1-2)Man(a1-3)]Man(b1-4)GlcNAc(b1-4)GlcNAc
In short: as §1

[19] = molecular target: Man(a1-2)Man(a1-3)[Man(a1-6)]Man(a1-6)[Man(a1-2)Man(a1-3)]Man(b1-4)GlcNAc(b1-4)GlcNAc
In short: as §1

[20] = molecular target: Man(a1-2)Man(a1-6)[Man(a1-3)]Man(a1-6)[Man(a1-2)Man(a1-2)Man(a1-3)]Man
In short: as §1

[21] = molecular target: Man(a1-2)Man(a1-6)[Man(a1-3)]Man(a1-6)[Man(a1-2)Man(a1-2)Man(a1-3)]Man(b1-4)GlcNAc(b1-4)GlcNAc
In short: as §1

[22] = molecular target: Man(a1-3)[Man(a1-6)]Man
In short: as §1

[23] = molecular target: Man(a1-3)[Man(a1-6)]Man(a1-6)[Man(a1-2)Man(a1-3)]Man(b1-4)GlcNAc(b1-4)GlcNAc
In short: as §1

[24] = molecular target: Man(a1-3)[Man(a1-6)]Man(a1-6)[Man(a1-3)]Man
In short: as §1

[25] = molecular target: Man(a1-3)[Man(a1-6)]Man(a1-6)[Man(a1-3)]Man(b1-4)GlcNAc(b1-4)GlcNAc
In short: as §1

[26] = molecular target: Man(a1-3)[Man(a1-6)]Man(b1-4)GlcNAc(b1-4)GlcNAc
In short: as §1

[27] = molecular target: Man(a1-3)[Man(a1-6)]Man(b1-4)GlcNAc(b1-4)[Fuc(a1-6)]GlcNAc
In short: as §1

[28] = molecular target: Man(a1-6)Man
In short: as §1

[29] = molecular target: Man(b1-4)GlcNAc
In short: as §1

[30] = molecular target: MurNAc(b1-4)GlcNAc
In short: as §1

[31] = molecular target: Neu5Ac(a2-3)Gal
In short: as §1

[32] = molecular target: Neu5Ac(a2-3)Gal(b1-3)GalNAc
In short: as §1

[33] = molecular target: Neu5Ac(a2-3)Gal(b1-3)GalNAc(b1-3)Gal(a1-4)Gal(b1-4)Glc
In short: as §1

[34] = molecular target: Neu5Ac(a2-3)Gal(b1-3)GalNAc(b1-4)Gal(b1-4)Glc
In short: as §1

[35] = molecular target: Neu5Ac(a2-3)Gal(b1-3)GalNAc(b1-4)[Neu5Ac(a2-3)]Gal(b1-4)Glc
In short: as §1

[36] = molecular target: Neu5Ac(a2-3)Gal(b1-3)GalNAc(b1-4)[Neu5Ac(a2-8)Neu5Ac(a2-3)]Gal(b1-4)Glc
In short: as §1

[37] = molecular target: Neu5Ac(a2-3)Gal(b1-3)GalNAc6S
In short: as §1

[38] = molecular target: Neu5Ac(a2-3)Gal(b1-3)GlcNAc
In short: as §1

[39] = molecular target: Neu5Ac(a2-3)Gal(b1-3)GlcNAc(b1-2)Man
In short: as §1

[40] = molecular target: Neu5Ac(a2-3)Gal(b1-3)GlcNAc(b1-2)Man(a1-3)[GlcNAc(b1-4)][Neu5Ac(a2-3)Gal(b1-3)GlcNAc(b1-2)Man(a1-6)]Man(b1-4)GlcNAc(b1-4)GlcNAc
In short: as §1

[41] = molecular target: Neu5Ac(a2-3)Gal(b1-3)GlcNAc(b1-2)Man(a1-3)[Neu5Ac(a2-3)Gal(b1-3)GlcNAc(b1-2)Man(a1-6)]Man(b1-4)GlcNAc(b1-4)GlcNAc
In short: as §1

[42] = molecular target: Neu5Ac(a2-3)Gal(b1-3)GlcNAc(b1-2)[Neu5Ac(a2-3)Gal(b1-3)GlcNAc(b1-4)]Man(a1-6)[Neu5Ac(a2-3)Gal(b1-3)GlcNAc(b1-2)Man(a1-3)]Man(b1-4)GlcNAc(b1-4)GlcNAc
In short: as §1

[43] = molecular target: Neu5Ac(a2-3)Gal(b1-3)GlcNAc(b1-3)Gal(b1-3)GlcNAc
In short: as §1

[44] = molecular target: Neu5Ac(a2-3)Gal(b1-3)GlcNAc(b1-3)Gal(b1-4)GlcNAc
In short: as §1

[45] = molecular target: Neu5Ac(a2-3)Gal(b1-3)GlcNAc(b1-3)GalNAc
In short: as §1

B1: MpL2 (Macrolepiota procera) (protein)
chain: MSTQVSSGQTYKITNVKAGTVIRLSGEDNKSIIGYPYHSGKNQQWTFNWTGKAWTLRSASSGSYLGIEGTPADGTRLVAVNDPFEWHIWRDEANENAFRIFVPFTNYNLDLSGYGDTTPGTPVQLWWTWEGLHQTWTIDRP
[1]
  glycan array binding signal (z-score): 0.055
[2]
  glycan array binding signal (z-score): -0.21
[3]
  glycan array binding signal (z-score): -0.082
[4]
  glycan array binding signal (z-score): -0.168
[5]
  glycan array binding signal (z-score): -0.334
[6]
  glycan array binding signal (z-score): -0.068
[7]
  glycan array binding signal (z-score): -0.183
[8]
  glycan array binding signal (z-score): 0.14
[9]
  glycan array binding signal (z-score): -0.944
[10]
  glycan array binding signal (z-score): 0.124
[11]
  glycan array binding signal (z-score): -0.398
[12]
  glycan array binding signal (z-score): -0.364
[13]
  glycan array binding signal (z-score): 0.036
[14]
  glycan array binding signal (z-score): -0.259
[15]
  glycan array binding signal (z-score): -0.175
[16]
  glycan array binding signal (z-score): -0.713
[17]
  glycan array binding signal (z-score): 0.225
[18]
  glycan array binding signal (z-score): 0.471
[19]
  glycan array binding signal (z-score): -0.437
[20]
  glycan array binding signal (z-score): -0.588
[21]
  glycan array binding signal (z-score): -0.086
[22]
  glycan array binding signal (z-score): 0.027
[23]
  glycan array binding signal (z-score): 1.8
[24]
  glycan array binding signal (z-score): 0.103
[25]
  glycan array binding signal (z-score): -0.255
[26]
  glycan array binding signal (z-score): -0.093
[27]
  glycan array binding signal (z-score): 0.191
[28]
  glycan array binding signal (z-score): -0.378
[29]
  glycan array binding signal (z-score): -0.024
[30]
  glycan array binding signal (z-score): -0.061
[31]
  glycan array binding signal (z-score): -0.554
[32]
  glycan array binding signal (z-score): 0.304
[33]
  glycan array binding signal (z-score): 0.052
[34]
  glycan array binding signal (z-score): -0.568
[35]
  glycan array binding signal (z-score): -0.197
[36]
  glycan array binding signal (z-score): -1.47
[37]
  glycan array binding signal (z-score): -0.234
[38]
  glycan array binding signal (z-score): 0.018
[39]
  glycan array binding signal (z-score): -0.87
[40]
  glycan array binding signal (z-score): 0.519
[41]
  glycan array binding signal (z-score): 1.78
[42]
  glycan array binding signal (z-score): -0.367
[43]
  glycan array binding signal (z-score): -0.798
[44]
  glycan array binding signal (z-score): -0.228
[45]
  glycan array binding signal (z-score): -0.308
